This is one part of the list.
Molecular target: T1, OsWOX13 (Oryza sativa, UniProt Q5QMM3 1-267)
T1 sequence: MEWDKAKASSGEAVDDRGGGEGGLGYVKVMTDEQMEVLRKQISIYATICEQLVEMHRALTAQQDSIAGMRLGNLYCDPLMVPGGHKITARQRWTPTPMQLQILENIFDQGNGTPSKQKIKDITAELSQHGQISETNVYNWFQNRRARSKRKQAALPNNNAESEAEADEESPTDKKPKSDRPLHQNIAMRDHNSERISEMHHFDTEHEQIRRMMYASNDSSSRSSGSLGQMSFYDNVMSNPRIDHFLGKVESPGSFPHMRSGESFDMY
Experiment: protein-binding microarray (RPBM); PBS, 2% BSA, 51.3 ng/ul salmon testes DNA, 50 uM zinc acetate, 200 nM TF, 25 C, 1 h; high values mean tight binding
Details: protein: recombinant; tags: N-terminal polyhistidine and DsRed monomer fusion (pET32a); label: CyDye5-dUTP incorporated in the synthesized complementary strand; 3' TTTTT single-stranded linker to array surface; dsDNA, one strand shown
Procedure, shortened: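 Transcription factors, each fused N-terminally to a polyhistidine tag and DsRed, were expressed in E. coli BL21-CodonPlus and purified on Ni–NTA. A custom Agilent array was made double-stranded by primer extension with Cy5-dUTP and blocked with 2% BSA. It was incubated with 200 nM protein in PBS, 2% BSA, salmon testes DNA and 50 µM zinc acetate at 25 °C for 1 h, then washed. The binding signal is per-feature fluorescence intensity (arbitrary units) read on an Axon 4000B scanner.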

Sequence	binding signal
TTTTAGATCTAAATTTATACCATAATATAAACATCTTTGGCGGAGTCACCTAGTGCAG	7110 fluorescence intensity (a.u.)
ATGTGGCCGATAATTGCTTTGCATGCTGATGGATGTGGCTCGGAGTCACCTAGTGCAG	4180 fluorescence intensity (a.u.)
TTATGATTTGGACACTTGGTGATTAACTACTGATAATAGTCGGAGTCACCTAGTGCAG	17900 fluorescence intensity (a.u.)
TTCAACAGATTGATTGTTCTGTTGATTGGTACGCAGAGAACGGAGTCACCTAGTGCAG	49600 fluorescence intensity (a.u.)
CCGTGACAGCGACATTCTTTACCTGCCCAACCCCAACCCCCGGAGTCACCTAGTGCAG	8740 fluorescence intensity (a.u.)
GAAATTTGACGGAAATTTCCGGACAAATACGGTTATCGACCGGAGTCACCTAGTGCAG	7180 fluorescence intensity (a.u.)
ACACCAATCAAAATAGAGTTAATTATAAATATACTAGTCGCGGAGTCACCTAGTGCAG	30300 fluorescence intensity (a.u.)
CATAAATTAGAAATGAGCTACAAGTATGACTGGGGATAAACGGAGTCACCTAGTGCAG	7010 fluorescence intensity (a.u.)
TCACCTAAAATTGACAGATAACTTCTCTAATATCTATAATCGGAGTCACCTAGTGCAG	14800 fluorescence intensity (a.u.)
ATTTAAATTGGTACCTCTTTTCTATGTCAAATGGAAATTGCGGAGTCACCTAGTGCAG	28800 fluorescence intensity (a.u.)
GAGAATGATTCACATGAAATTTGTGATGTCCATGTCACATCGGAGTCACCTAGTGCAG	3530 fluorescence intensity (a.u.)
AAATGCCAATTTAATTGGAACATCGTGATGTCAAATGAGCCGGAGTCACCTAGTGCAG	17200 fluorescence intensity (a.u.)
AATGACGGAAGTGATTTTGAGATAAAATGGTTGACAGTTGCGGAGTCACCTAGTGCAG	11600 fluorescence intensity (a.u.)
CTTGGATGATAGACATAGACTGATTAGCAAACCAATTCATCGGAGTCACCTAGTGCAG	25600 fluorescence intensity (a.u.)
CGAGCCAATCAAGTTGTTTTAAGGAAAGCAAACGTACGCACGGAGTCACCTAGTGCAG	10500 fluorescence intensity (a.u.)
ATGTGGTAATATAATTATGTGAGGAGAGTGAGACGGGTAACGGAGTCACCTAGTGCAG	5530 fluorescence intensity (a.u.)
ATAGTTAATTATTCCTGATTGAGTAGTATAGGGACGCACACGGAGTCACCTAGTGCAG	40700 fluorescence intensity (a.u.)
CCTCTAAATTGAATTACTCCGTATGTACCTTTATCACACCCGGAGTCACCTAGTGCAG	45800 fluorescence intensity (a.u.)
AAAGCTAAATTGATGGACGCTTGAGTCAGATTTGATCCATCGGAGTCACCTAGTGCAG	20200 fluorescence intensity (a.u.)
TTTCAAATTTGAATTTGAATTCAAATATCCTATTCAAATTCGGAGTCACCTAGTGCAG	4080 fluorescence intensity (a.u.)
ACTAACTGTGATGGTGAGAACTAATACTTCCTCCGTTTTACGGAGTCACCTAGTGCAG	3600 fluorescence intensity (a.u.)

Sequence	binding signal
TATAAATATAATTTATCCAAAGAGCATTTATAAGGACTTCCGGAGTCACCTAGTGCAG	4240 fluorescence intensity (a.u.)
TATAATTTAAATTCAAATTTGAATCGGGTATGTAAACTTTCGGAGTCACCTAGTGCAG	15500 fluorescence intensity (a.u.)
GAAAATTTACAAATCTAATCGCCTGCCGCCCTTTGGGAGGCGGAGTCACCTAGTGCAG	6470 fluorescence intensity (a.u.)
GATCTAGTGATTGAGAAGCTGGGTGTGCGTTCGATGATTGCGGAGTCACCTAGTGCAG	24100 fluorescence intensity (a.u.)
TCACTAAATTTGAATTTGTTTTGATAAATTAAAACAAATGCGGAGTCACCTAGTGCAG	25600 fluorescence intensity (a.u.)
TTTCACGTTTAGATGATTGGGGAAGCAGATGGGTGAAATCCGGAGTCACCTAGTGCAG	7920 fluorescence intensity (a.u.)
GTTAATTAATTTACTAGTGTATTCCAACCACAAAGCCGACCGGAGTCACCTAGTGCAG	51700 fluorescence intensity (a.u.)
AGCACTGCAATTAAACAATCTCACTAAATGCAAATCCTACCGGAGTCACCTAGTGCAG	3300 fluorescence intensity (a.u.)
ATGTTGCCAATCAATTCCAGCCAGGCGCACTAGCAATCTTCGGAGTCACCTAGTGCAG	16300 fluorescence intensity (a.u.)
TCTTAATAATTATTTCTTAATTAATTCTGTGCTAATTGTGCGGAGTCACCTAGTGCAG	54300 fluorescence intensity (a.u.)
CAATAATTATAATTACGATGGTTCGAATCAAAATTTCAAGCGGAGTCACCTAGTGCAG	35000 fluorescence intensity (a.u.)
AAAGATTAGATAGGATTCAATCCTTTATTTCAAAGGGCTTCGGAGTCACCTAGTGCAG	27000 fluorescence intensity (a.u.)
CTGATTATGTATAGTAATTTGAAACACGGAGATTTCAAGTCGGAGTCACCTAGTGCAG	24400 fluorescence intensity (a.u.)
TGCCAAATTGCCAATCCAACGGCTGCAAGAGCATAAATCCCGGAGTCACCTAGTGCAG	22400 fluorescence intensity (a.u.)
GAGACCGTAAATTGGCTGCTCGTCGAATTTGCAATCTTGGCGGAGTCACCTAGTGCAG	13800 fluorescence intensity (a.u.)
TATTGATATTAATGAATCTAGATAGATATATATGTCTAGACGGAGTCACCTAGTGCAG	6810 fluorescence intensity (a.u.)
CAAATTTAATTAACTGTTTAGTTTGATACTTGGCCTCATACGGAGTCACCTAGTGCAG	21100 fluorescence intensity (a.u.)
CTTTTGTTTCAGTCAATCTTTTAGCAAATCTTGTATCTTCCGGAGTCACCTAGTGCAG	3560 fluorescence intensity (a.u.)
TTAGGCTGATTGCAGAAGATTCGGTGAGTTGTTTGACACTCGGAGTCACCTAGTGCAG	16200 fluorescence intensity (a.u.)
TTTACTTAGTCAATCAATAGTGTCAAGTCATTTGAAACCGCGGAGTCACCTAGTGCAG	18100 fluorescence intensity (a.u.)
AAATTTTAAACTAAAATTTGACTGCATCATGCTGGCTTTTCGGAGTCACCTAGTGCAG	6060 fluorescence intensity (a.u.)

Sequence	binding signal
GCTTTCTAAATGTTAATTCCATCAAATAAAATAATGCAGGCGGAGTCACCTAGTGCAG	3520 fluorescence intensity (a.u.)
TGGTAAAACCGCGTTGTGATTGCTTCATATCCCTGGTTCCCGGAGTCACCTAGTGCAG	6790 fluorescence intensity (a.u.)
AACTTTTCTATCACATCATTCTAATTTCAACCAAATTTTCCGGAGTCACCTAGTGCAG	6910 fluorescence intensity (a.u.)
CTAAGCAAAGCATTTAATTGATACAAGTTGCTGGGATCATCGGAGTCACCTAGTGCAG	6590 fluorescence intensity (a.u.)
GCGATAAATTTATAATTGCCACTTATAATAGTGTATGAAACGGAGTCACCTAGTGCAG	24000 fluorescence intensity (a.u.)
TGTGTTAATTGCTTCTAAATATGGTTATTATTGATGATCACGGAGTCACCTAGTGCAG	44000 fluorescence intensity (a.u.)
CTCACCTAATTTCTATATATTTCTCTTATAATATATCCAACGGAGTCACCTAGTGCAG	3900 fluorescence intensity (a.u.)
AATGACAAGACGGTTGATGAGACAAGACTAAGAGTAGATTCGGAGTCACCTAGTGCAG	3840 fluorescence intensity (a.u.)
TGAACAATGATTGGAGCATACTAACACTACAGTACAATTACGGAGTCACCTAGTGCAG	27400 fluorescence intensity (a.u.)
TCTGATTGAACGAGTTTACAGATTGAGAAAGCACGCGTCACGGAGTCACCTAGTGCAG	53800 fluorescence intensity (a.u.)
GCTCATTAGCATATGATTAACTAGATGAATACCCCGCCACCGGAGTCACCTAGTGCAG	8730 fluorescence intensity (a.u.)
GTCTCTTCCTTTCATGTCTTGTATGTTATCCAAACAATATCGGAGTCACCTAGTGCAG	3980 fluorescence intensity (a.u.)
CCACTACTTATTCAATCACAACCCTTCACTACTCATTTCTCGGAGTCACCTAGTGCAG	5440 fluorescence intensity (a.u.)
TCTCTAGTAATTACAGTAAGACACACTTCTCAGAAAAGAACGGAGTCACCTAGTGCAG	3590 fluorescence intensity (a.u.)
AGAATGATTAGCAGATAACCACAGTACGGCAAACATGAGGCGGAGTCACCTAGTGCAG	34900 fluorescence intensity (a.u.)
AGGGTAAATTAATTGCCGAGAGGCCCCACTCGGGAACAGTCGGAGTCACCTAGTGCAG	27700 fluorescence intensity (a.u.)
CAGTTTAATTGCTCCTCGGATGGATCTGGTATAGTTCTGCCGGAGTCACCTAGTGCAG	20700 fluorescence intensity (a.u.)
AACTAATTTGATATTTTATATGTTGTTAAATTTTCTGTAACGGAGTCACCTAGTGCAG	19800 fluorescence intensity (a.u.)
TCTCCTCATCAATCCAATCTCATTAACTCATCACAAGCATCGGAGTCACCTAGTGCAG	9890 fluorescence intensity (a.u.)
GATTAATGATTAATTAATAATATGTTAATGAGTTTTATCCCGGAGTCACCTAGTGCAG	52500 fluorescence intensity (a.u.)
ATGATTACTAAAACTGTACTTAAAGGCAATGGTTTCTGTACGGAGTCACCTAGTGCAG	13900 fluorescence intensity (a.u.)

Sequence	binding signal
AATAACTCATTAAATTGCATAACCATATCACATATAGTTTCGGAGTCACCTAGTGCAG	8320 fluorescence intensity (a.u.)
AATTCCCATGCTGATTGCACGTCATAGGTGCATCTAGCGACGGAGTCACCTAGTGCAG	7000 fluorescence intensity (a.u.)
ACAAAACTATAGATTGAACTAGAATTCTCACAGTTCTGAACGGAGTCACCTAGTGCAG	6750 fluorescence intensity (a.u.)
AATGAGATTAAGGAGGATTTGAAAGAGATTAATCTCACACCGGAGTCACCTAGTGCAG	3310 fluorescence intensity (a.u.)
TTTATGTAATTATCATTTATTTTATTATGACTTGATTTGTCGGAGTCACCTAGTGCAG	18800 fluorescence intensity (a.u.)
GTTGACAAGAAATGACACGTGAGCATGATAGCTCAACGACCGGAGTCACCTAGTGCAG	4110 fluorescence intensity (a.u.)
CCGCTCTGCTCCAATCACGTATTTGTCCAAGACAAGCAACCGGAGTCACCTAGTGCAG	3860 fluorescence intensity (a.u.)
CATAATTAGCGTTGTTTGTTATAGGGTGTGTATAGGCCTACGGAGTCACCTAGTGCAG	32800 fluorescence intensity (a.u.)
CGTCGAGATTGAAGCCAACACAGCCATGCACTACTAGCTACGGAGTCACCTAGTGCAG	17100 fluorescence intensity (a.u.)
TCGTTGACTGATAAAACCTGGTAATTCTGGCCAAACCGGTCGGAGTCACCTAGTGCAG	32100 fluorescence intensity (a.u.)
ATGACTAACGTAATGTAAGTGACCATGCATATATGCATGCCGGAGTCACCTAGTGCAG	3460 fluorescence intensity (a.u.)
ATGGAAGCCTATTAATTGGTAATACGTAATCTAGAATTGACGGAGTCACCTAGTGCAG	13300 fluorescence intensity (a.u.)
TTGACAGACTGCTGCTGAAAATCAGAGTCCATGGTCAAAACGGAGTCACCTAGTGCAG	3890 fluorescence intensity (a.u.)
GTTGCAAAACGGGTTGTTTTAATTGATGAATATGGAAAGACGGAGTCACCTAGTGCAG	4310 fluorescence intensity (a.u.)
TCTAATGATAAATCATTTATCACTAATTGTAAGAGTGGTACGGAGTCACCTAGTGCAG	53400 fluorescence intensity (a.u.)
TCTTCCATTGGTAATTGGATGGTAGTACTATGGCAGAGTTCGGAGTCACCTAGTGCAG	3620 fluorescence intensity (a.u.)
TAAAACTCAATCAATCATATATTATTATCACATCGTTTTGCGGAGTCACCTAGTGCAG	50000 fluorescence intensity (a.u.)
TAACAGCCACTAATTATTTCTGAAATATTTGCTCGCTGTACGGAGTCACCTAGTGCAG	5380 fluorescence intensity (a.u.)
TTCCATGGTGATTGTAAGCCGTTCGATTAACGTGGAAAGCCGGAGTCACCTAGTGCAG	6960 fluorescence intensity (a.u.)
ATATGATTAATATTTTATGCGATTAATATTTTATGCGTGACGGAGTCACCTAGTGCAG	41400 fluorescence intensity (a.u.)
CAACTGACAGCGAATGATTTTCTTGTGTACTAACCACCACCGGAGTCACCTAGTGCAG	22100 fluorescence intensity (a.u.)
